Measured values published in patent publication US20230416329A1, “A PEPTIDE WITH DISULFIDE BONDS AND INHIBITORY ACTIVITY AGAINST SERINE PROTEASES, DERIVED HYBRID PEPTIDES THEREOF, AND USES THEREOF” (INSTITUTE OF MATERIA MEDICA , CHINESE ACADEMY OF MEDICAL …, priority 2020, published 2023).
At least one peptide structure holds a part that was inferred or is arguable (an end, a ring closure or a residue).

Experiments:
normal ICR mice [1] = experiment: In vivo hypoglycemic activity of GLP-1 analogues, subcutaneous administration, oral glucose loading; set-up: species or system mouse; conditions: subcutaneous 1 μmol/kg, mean; for AUC (blood glucose-time curve): 0-120 min; for Blood glucose 0 min: oral glucose loading 2 g/kg; for Blood glucose 30 min: 30 min after oral glucose loading; for Blood glucose 60 min: 60 min after oral glucose loading; for Blood glucose 120 min: 120 min after oral glucose loading
normal ICR mice [2] = experiment: In vivo hypoglycemic activity of GLP-1 analogues, duodenal administration, oral glucose loading; set-up: species or system mouse; conditions: duodenal injection 10 μmol/kg, mean; for AUC (blood glucose-time curve): 0-60 min; for Blood glucose 15 min: 15 min after oral glucose loading
Description: FIG. 22. In vivo hypoglycemic activities of GLP-1 analogues by duodenal administration. Normal ICR mice were anesthetized with inhalation of ether, and the duodenum was surgically removed and injected with GLP-1 and its analogues or a corresponding volume of saline ([…], n=9-11), and finally the incision was sewed. After 15 min, glucose solution (2 g/kg) was administered by gavage, and blood was collected from the tail tips at 15, 30, and 60 min after glucose administration. Blood glucose was measured using glucose oxidase method, and blood glucose values and area under the blood glucose curve (AUC) were calculated at each timepoint.
Drug delivery technology can use enteric coating technology to achieve oral administration targeting the small intestine. In order to test the feasibility of direct small intestinal administration of GLP-1, the present invention designs duodenal administration. The experimental process is as follows: The day before the experiment, all of the animals were fasted for 15-16 hours with water ad libitum. On the day of the experiment, the animals were randomly divided according to body weight (n=9-11 or 14-15 for combined administration). Firstly, the blood was collected from the tail tip at 0 hours, and then the animals were anesthetized by inhaling ether. A small incision was made near the underside of the stomach using surgical scissors, and the duodenum was carefully removed and administered with GLP-1 analogs (SEQ ID NOs: 194-209, 10 μmol/kg) or saline. Finally, the wound was sutured. After 15 minutes, the glucose solution (2 g/kg) was administered by gavage, and the blood were collected from the tail tips at 15, 30, and 60 minutes after glucose administration. Blood glucose was measured using the glucose oxidase method. The blood glucose at each moment and area under the blood glucose-time curve (AUC) were calculated.
AUC mg×h/dL)=(BG0+BG15)×15/60+(BG15+BG30)×15/60+(BG30+BG60)×30/60. BG0, BG15, BG30, and BG60 represent blood glucose levels at 0, 15, 30, and 60 minutes after glucose loading, respectively.

Row | Structure (SMILES) | AUC (blood glucose-time curve) (normal ICR mice [1]) [mg·h/dL] | Blood glucose 0 min (normal ICR mice [1]) [mg/dL] | Blood glucose 30 min (normal ICR mice [1]) [mg/dL] | Blood glucose 60 min (normal ICR mice [1]) [mg/dL] | Blood glucose 120 min (normal ICR mice [1]) [mg/dL] | AUC (blood glucose-time curve) (normal ICR mice [2]) [mg·h/dL] | Blood glucose 0 min (normal ICR mice [2]) [mg/dL] | Blood glucose 15 min (normal ICR mice [2]) [mg/dL] | Blood glucose 30 min (normal ICR mice [2]) [mg/dL] | Blood glucose 60 min (normal ICR mice [2]) [mg/dL]
1 | CC[C@H](C)[C@H](NC(=O)[C@H](Cc1ccccc1)NC(=O)[C@H](CCC(=O)O)NC(=O)[C@H](CCCCN)NC(=O)[C@H](C)NC(=O)[C@H](C)NC(=O)[C@H](CCC(N)=O)NC(=O)CNC(=O)[C@H](CCC(=O)O)NC(=O)[C@H](CC(C)C)NC(=O)[C@H](Cc1ccc(O)cc1)NC(=O)[C@H](CO)NC(=O)[C@H](CO)NC(=O)[C@@H](NC(=O)[C@H](CC(=O)O)NC(=O)[C@H](CO)NC(=O)[C@@H](NC(=O)[C@H](Cc1ccccc1)NC(=O)[C@@H](NC(=O)CNC(=O)[C@H](CCC(=O)O)NC(=O)[C@H](C)NC(=O)[C@H](Cc1c[nH]cn1)NC(=O)CNC(=O)CNC(=O)[C@@H](NC(=O)[C@@H]1CCCN1C(=O)[C@@H](NC(=O)CN)[C@@H](C)CC)[C@@H](C)CC)[C@@H](C)O)[C@@H](C)O)C(C)C)C(=O)N[C@@H](C)C(=O)N[C@@H](Cc1c[nH]c2ccccc12)C(=O)N[C@@H](CC(C)C)C(=O)N[C@H](C(=O)N[C@@H](CCCCN)C(=O)NCC(=O)N[C@@H](CCCNC(=N)N)C(=O)NCC(=O)NCC(=O)N[C@@H](CCCCN)C(=O)NCC(=O)N[C@@H](CC(C)C)C(=O)N[C@H]1CSSC[C@@H](C(=O)N[C@@H](Cc2ccc(O)cc2)C(=O)O)NC(=O)[C@H](CCC(N)=O)NC(=O)[C@@H]2CCCN2C(=O)[C@@H]2CCCN2C(=O)[C@H]([C@@H](C)CC)NC(=O)[C@H](CO)NC(=O)[C@H](C)NC(=O)[C@H]([C@@H](C)O)NC1=O)C(C)C [D-GLP-1-EC1] | 166.4 | 67.3 | 111.8 | 81.8 | 64.5 | 139.7 | 73.2 | 132.4 | 152.3 | 161.3
2 | CC[C@H](C)[C@H](NC(=O)[C@H](Cc1ccccc1)NC(=O)[C@H](CCC(=O)O)NC(=O)[C@H](CCCCN)NC(=O)[C@H](C)NC(=O)[C@H](C)NC(=O)[C@H](CCC(N)=O)NC(=O)CNC(=O)[C@H](CCC(=O)O)NC(=O)[C@H](CC(C)C)NC(=O)[C@H](Cc1ccc(O)cc1)NC(=O)[C@H](CO)NC(=O)[C@H](CO)NC(=O)[C@@H](NC(=O)[C@H](CC(=O)O)NC(=O)[C@H](CO)NC(=O)[C@@H](NC(=O)[C@H](Cc1ccccc1)NC(=O)[C@@H](NC(=O)CNC(=O)[C@H](CCC(=O)O)NC(=O)[C@H](C)NC(=O)[C@H](Cc1c[nH]cn1)NC(=O)CNC(=O)CNC(=O)[C@@H](NC(=O)[C@@H]1CCCN1C(=O)[C@@H](NC(=O)CN)[C@@H](C)CC)[C@@H](C)CC)[C@@H](C)O)[C@@H](C)O)C(C)C)C(=O)N[C@@H](C)C(=O)N[C@@H](Cc1c[nH]c2ccccc12)C(=O)N[C@@H](CC(C)C)C(=O)N[C@H](C(=O)N[C@@H](CCCCN)C(=O)NCC(=O)N[C@@H](CCCNC(=N)N)C(=O)NCC(=O)NCC(=O)N[C@@H](CCCCN)C(=O)NCC(=O)N[C@@H](CC(C)C)C(=O)N[C@H]1CSSC[C@@H](C(=O)N[C@@H](CCC(N)=O)C(=O)O)NC(=O)[C@H]([C@@H](C)CC)NC(=O)[C@@H]2CCCN2C(=O)[C@@H]2CCCN2C(=O)[C@H]([C@@H](C)CC)NC(=O)[C@H](CO)NC(=O)[C@H](C)NC(=O)[C@H]([C@@H](C)O)NC1=O)C(C)C [D-GLP-1-EC12] | 144.8 | 54.3 | 105.8 | 66.3 | 57.1 | 145.5 | 72.9 | 131.2 | 158.2 | 177.1
3 | CC[C@H](C)[C@H](NC(=O)[C@H](Cc1ccccc1)NC(=O)[C@H](CCC(=O)O)NC(=O)[C@H](CCCCN)NC(=O)[C@H](C)NC(=O)[C@H](C)NC(=O)[C@H](CCC(N)=O)NC(=O)CNC(=O)[C@H](CCC(=O)O)NC(=O)[C@H](CC(C)C)NC(=O)[C@H](Cc1ccc(O)cc1)NC(=O)[C@H](CO)NC(=O)[C@H](CO)NC(=O)[C@@H](NC(=O)[C@H](CC(=O)O)NC(=O)[C@H](CO)NC(=O)[C@@H](NC(=O)[C@H](Cc1ccccc1)NC(=O)[C@@H](NC(=O)CNC(=O)[C@H](CCC(=O)O)NC(=O)[C@H](C)NC(=O)[C@H](Cc1c[nH]cn1)NC(=O)CNC(=O)CNC(=O)[C@@H](NC(=O)[C@@H]1CCCN1C(=O)[C@@H](NC(=O)CNC(=O)CNC(=O)[C@H](Cc1ccc(O)cc1)NC(=O)[C@@H]1CSSC[C@H](NC(=O)[C@@H](N)CC(C)C)C(=O)N[C@@H]([C@@H](C)O)C(=O)N[C@@H](C)C(=O)N[C@@H](CO)C(=O)N[C@@H]([C@@H](C)CC)C(=O)N2CCC[C@H]2C(=O)N2CCC[C@H]2C(=O)N[C@@H](CCC(N)=O)C(=O)N1)[C@@H](C)CC)[C@@H](C)CC)[C@@H](C)O)[C@@H](C)O)C(C)C)C(=O)N[C@@H](C)C(=O)N[C@@H](Cc1c[nH]c2ccccc12)C(=O)N[C@@H](CC(C)C)C(=O)N[C@H](C(=O)N[C@@H](CCCCN)C(=O)NCC(=O)N[C@@H](CCCNC(=N)N)C(=O)NCC(=O)NCC(=O)N[C@@H](CCCCN)C(=O)O)C(C)C [EC1-D-GLP-1] | 157.7 | 67.5 | 94.8 | 85.2 | 59.1 | 142.9 | 76.4 | 122.4 | 147.3 | 190.1
